In all, about 410,000 compounds went through this assay and about 6,400 (1.6%) were called active. Inconclusive results, whose numbers are uncertain, are shown with a selection of clear calls. Calls come from the whole dose curve; as a rule, active = well fitted inhibition curve with a large enough effect; inconclusive = small, poorly fitted or top-dose-only effect; inactive = no such curve, though single readings can be large or run the other way. No potency is given beside an inconclusive call; the fits are too rough.
Biological target: Glucagon-like peptide 1 receptor (Homo sapiens) (UniProt P43220)
Experiment: qHTS of GLP-1 Receptor Inverse Agonists (Inhibition Mode); note: nearly all actives have a fitted effect of over 55% in size
Conditions: HEK293 GLP-1R CRE-luciferase, luminescence, 24 h, GLP-1R form is constitutively active; activity change, negative = inhibition: at 38.3 µM (top of the series) unless noted
In short: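 Readout was luciferase luminescence, measured 12 min after detection reagent at room temperature. Beforehand, GLP-1R reporter HEK293 cells had sat 12 h, then received compounds for 24 hr at 37 deg C.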
% is set by controls: 0 for no effect and ±100 for the full control effect; potency is the fitted concentration of half-maximal effect; tags give direction and shape of the fitted curve.

Chain of UniProt P43220 (P43220 whole entry, looked up): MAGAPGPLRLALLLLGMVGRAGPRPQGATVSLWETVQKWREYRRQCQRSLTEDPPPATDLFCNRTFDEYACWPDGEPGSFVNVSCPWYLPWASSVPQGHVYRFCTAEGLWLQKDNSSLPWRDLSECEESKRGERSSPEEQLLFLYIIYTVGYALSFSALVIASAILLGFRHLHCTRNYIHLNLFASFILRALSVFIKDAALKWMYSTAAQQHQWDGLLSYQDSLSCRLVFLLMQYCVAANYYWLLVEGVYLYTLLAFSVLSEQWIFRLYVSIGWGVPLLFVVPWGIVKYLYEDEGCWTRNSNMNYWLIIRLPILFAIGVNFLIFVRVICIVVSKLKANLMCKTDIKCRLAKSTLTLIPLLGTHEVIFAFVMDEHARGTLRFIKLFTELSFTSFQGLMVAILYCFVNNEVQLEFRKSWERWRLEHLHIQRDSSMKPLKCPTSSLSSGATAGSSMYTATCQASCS

Compound | Potency | activity change, negative = inhibition
CCN1C(=O)[C@H]2[C@@H](c3ccc(SC4CCCCC4)cc3)N[C@@](CC(C)C)(C(=O)OC)[C@H]2C1=O | inconclusive [inhibitor, partial curve, poor fit] | –
COc1ccc(S(=O)(=O)NCC(c2ccco2)N2CCN(c3ccc(F)cc3)CC2)cc1 (stereo unspecified) | inconclusive [inhibitor, single point] | –
Cc1ccc(NC(=O)CN2CCC(C(=O)c3ccc4c(c3)OCCO4)CC2)cc1 | inconclusive [inhibitor, single point] | –
CCCOc1ccccc1C1C(C(=O)OC)=CN(C(C)C)C=C1C(=O)OC | inconclusive [inhibitor, partial curve, poor fit] | –
CC1CCCN(C(=O)CSc2nc3ccccc3o2)C1 (stereo unspecified) | inactive | –
COC(=O)c1ccc(NC(=O)N2CCN(c3nnc(C)c4c(C)n(-c5ccccc5)nc34)CC2)cc1 | inactive | –
O=C(Cn1c(=O)c(C(F)(F)F)nc2ccccc21)Nc1ccc(Br)cc1F | inactive | –
Cc1ccccc1Cn1cc(CCC(=O)NCc2cccc(Br)c2)c2ccccc21 | inconclusive [inhibitor, single point] | –
COc1ccc(-c2csc(C(C)(O)c3cccc(F)c3)n2)cn1 (stereo unspecified) | inconclusive [inhibitor, single point] | –
O=C(c1cnc2c(c1)COc1ccccc1-2)c1ccccc1O | inconclusive [inhibitor, single point] | –
CC1=C(C(=O)OC(C)C)C(c2cccc(F)c2)N2C(=O)C(C)SC2=N1 (stereo unspecified) | inconclusive [inhibitor, partial curve] | –
CS(=O)(=O)c1ccc2nnn(OCC(=O)Nc3ccc(Br)cc3Br)c2c1 | active: 10 µM | –
COCCCn1c(SCC(=O)n2c(C)c(C)c3ccccc32)nnc1-c1ccoc1C | inconclusive [inhibitor, single point] | –
S=C1NCN(C2CCCCC2)CN1c1ccccc1 | inactive | –
OC1(c2ccc(OC(F)F)cc2)CSC(=Nc2cccnc2)N1Cc1ccco1 (stereo unspecified) | inconclusive [inhibitor, partial curve, poor fit] | –
Cc1ccc([C@H]2C(C(=O)O)=CC[C@@H](c3cccs3)N2S(=O)(=O)c2ccc(C)cc2)cc1 | inconclusive [inhibitor, single point] | –
CCSc1nc2ccccc2c(=O)n1CCc1ccc(OC)c(OC)c1 | inconclusive [inhibitor, single point] | –
Cc1cccc(C(=O)Nc2ccc(C(=O)OCc3cc(=O)n4c(C)csc4n3)cc2)c1 | inconclusive [inhibitor, single point] | –
CCOC(=O)c1sc(=S)n(-c2ccc(C)cc2)c1N | inconclusive [inhibitor, single point] | –
COc1ccc(C(C(=O)NC(C)(C)C)N(C(=O)CCC(=O)Nc2cc(C)on2)c2c(C)cccc2C)cc1 (stereo unspecified) | inconclusive [inhibitor, single point] | –
Cc1cccc(NC(=O)Nc2cccc(Oc3c(F)c(F)c(F)c(F)c3F)c2)c1 | inconclusive [inhibitor, full curve, poor fit] | –

Compound | Potency | activity change, negative = inhibition
CN1CCN(S(=O)(=O)c2ccc(Cl)c3ccccc23)CC1 | inconclusive [inhibitor, single point] | –
O=c1cc(O)nc(SCc2ccccc2)n1-c1ccc(Cl)cc1 | inconclusive [inhibitor, partial curve, poor fit] | –
COc1cccc(N2CCN(C(=O)c3cc(-c4ccc(F)cc4)[nH]c3C)CC2)c1 | – | inconclusive: -79% [inhibitor]
COc1ccc(/C=C/C(=O)c2ccc3c4c(cccc24)CC3)cc1OC | inconclusive [inhibitor, partial curve, poor fit] | –
Cc1ccc2nc(-c3cccc(N)c3)[nH]c2c1 | inconclusive [inhibitor, partial curve, poor fit] | –
Cc1ccccc1OCCCCn1c(CCNC(=O)C(C)(C)C)nc2ccccc21 | inconclusive [inhibitor, partial curve, poor fit] | –
COCCNc1nc(NCc2cccc(OC)c2OC)c2sccc2n1 | inconclusive [inhibitor, single point] | –
Cc1ccc([C@H]2C(C(=O)O)=C[C@@H](C(C)(C)C)N2S(=O)(=O)c2ccc(C)cc2)cc1 | inactive | –
CCCCn1c(=N)n(CC(=O)c2ccc(Br)s2)c2ccccc21 | inconclusive [inhibitor, partial curve, poor fit] | –
COc1cccc(-c2noc(CCCC(=O)NCc3ccco3)n2)c1 | inactive | –
C=CCN(CC=C)C(=O)c1ccc2nc(Cc3ccc(OC)c(OC)c3)oc2c1 | inactive | –
Cc1cccc(Cn2c(SCc3ccc(C(=O)NC4CCCC4)cc3)nc3cccnc32)c1 | inconclusive [inhibitor, single point] | –
Clc1ccc(-n2ncc3c(NCCCn4ccnc4)ncnc32)cc1 | inconclusive [inhibitor, single point] | –
C=C(C)COc1ccc(-c2[nH]ncc2Oc2ccc(OC)cc2)c(O)c1 | inconclusive [inhibitor, partial curve, poor fit] | –
CCOC(=O)C1=C(C)NC(=S)NC1c1ccc(-c2cccc(Cl)c2C)o1 (stereo unspecified) | inconclusive [inhibitor, partial curve, poor fit] | –
O=C(CCc1ccccc1)Nc1cc(C(F)(F)F)ccc1Cl | inactive | –
CC1(C)Cc2c(C#N)c(N3CCN(C(=O)c4ccccc4)CC3)nc(-c3ccco3)c2CS1 | inconclusive [inhibitor, single point] | –
Cc1nn(-c2ccc(Cl)cc2)c2nc(-c3cccnc3)cc(C(F)(F)F)c12 | inactive | –
CCCn1c(=S)[nH]c2ccc(C(F)(F)F)cc21 | inconclusive [inhibitor, partial curve, poor fit] | –
C/C(=N\NS(=O)(=O)c1ccccc1)c1cccc(NC(=O)c2cccc(Cl)c2)c1 | inconclusive [inhibitor, single point] | –
CC(C)N(Cc1ccccc1)C(=O)Cn1ncc2c3ccccc3n(Cc3ccccc3)c2c1=O | inconclusive [inhibitor, partial curve, poor fit] | –

Compound | Potency | activity change, negative = inhibition
CC1(Cc2ccccc2OC(F)(F)F)C(=O)Nc2c(Cl)ccc(Cl)c21 (stereo unspecified) | inconclusive [inhibitor, single point] | –
CC(=O)NC(c1ccc(F)c(F)c1)c1nc(-c2cccc(C(F)(F)F)c2)cs1 (stereo unspecified) | inconclusive [inhibitor, single point] | –
Cc1ccc(NS(=O)(=O)c2ccc(Cl)c(NC(=S)NC(=O)C3CCCCC3)c2)cc1Cl | inconclusive [inhibitor, partial curve, poor fit] | –
O=C(CCCN1C(=O)/C(=C/c2ccccc2OC(F)F)SC1=S)Nc1cccnc1 | inconclusive [inhibitor, partial curve, poor fit] | –
CCCN(Cc1nnc(-c2ccccc2Cl)o1)C(=O)COc1ccc(Cl)cc1 | inconclusive [inhibitor, single point] | –
COc1ccc(OCCC(=O)NCC23CC4CC(CC(C4)C2)C3)cc1 | inconclusive [inhibitor, single point] | –
O=C(NC(=S)NCCC1=CCCCC1)c1ccccc1Br | inconclusive [inhibitor, partial curve, poor fit] | –
COc1ccc(N2C(=O)c3ccccc3NC(=O)C2C(=O)NCC(C)C)cc1 (stereo unspecified) | inactive | –
COc1cc(Cl)c(C)cc1NC(=O)CCc1nc2cccnc2n1Cc1cccs1 | inconclusive [inhibitor, single point] | –
NC(=O)c1cc[n+](CC2=C(C(=O)O)N3C(=O)[C@@H](NC(=O)C(c4ccccc4)S(=O)(=O)[O-])[C@H]3SC2)cc1 (stereo partly specified) | inactive | –
O=C(Nc1cc(C(F)(F)F)ccc1-n1cncn1)c1ccc(-c2ccccc2)cc1 | inconclusive [inhibitor, partial curve, poor fit] | –
Cc1ccc(S(=O)(=O)N2CCCC2C(=O)OCc2ccco2)cc1 (stereo unspecified) | inactive | –
COc1ccc(CNC(=O)c2ccc(N(C)S(=O)(=O)c3ccc(C)cc3)cc2)cc1 | inconclusive [inhibitor, single point] | –
FC(F)Sc1ccc(NC(=S)N2CCN(c3ccccn3)CC2)cc1 | inconclusive [inhibitor, single point] | –
Cc1c(C(=O)Nc2cccc(S(=O)(=O)N3CCOCC3)c2)oc2ccccc12 | inconclusive [inhibitor, single point] | –
CC(O)CN(CC(C)O)c1ccc2c(c1)Cc1cc([N+](=O)[O-])ccc1-2 (stereo unspecified) | inconclusive [inhibitor, partial curve, poor fit] | –
Cc1onc(-c2ccccc2)c1-c1csc(N/N=C/c2ccccc2)n1 | inconclusive [inhibitor, partial curve, poor fit] | –
Cc1ccc(NC(=O)CSCC(=O)N(CCC(C)C)c2c(N)n(Cc3ccccc3)c(=O)[nH]c2=O)cc1 | inconclusive [inhibitor, single point] | –
COc1ccc(F)cc1-c1cc(NC(C)=O)c2ncc(-c3cccc(C(F)(F)F)c3)n2c1 | inconclusive [inhibitor, partial curve, poor fit] | –

Reference: PubChem BioAssay AID624417 (National Center for Advancing Translational Sciences (NCATS), 2012)
